Test results taken from paper PMC12040169 (PLOS Biology, 2025).
The list shows a part of the results.

Test system: T1, C. trachomatis L2/434/Bu expressing GFP (CTL2-GFP)
T1 construct: L2/434/Bu GFP intracellular growth in HeLa cells
Design: species or system HeLa; C. trachomatis total inclusion area by high-content imaging, normalised to DMSO
Settings: total inclusion area; 28.5 h, 10 µM; inhibitor
Method in brief: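 Imaging read-out: GFP inclusions and Hoechst nuclei captured by high-content imaging after fixation. Inclusion area/number = chlamydial growth; nuclei count = host cell viability. MIC calculated per earlier method.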

| Compound | % of control remaining |
| --- | --- |
| Cc1cc(NC(=O)C2CCN(C(=O)CCSc3ccccc3)CC2)no1 [CBK304329] | 63.468 |
| CSCCC(C(=O)O)N1CNC(=S)NC1 (stereo not shown) [CBK011382] | 47.7465 |
| Cc1ccc(NC(=O)N2CCCC(C(=O)O)C2)cc1 (stereo not shown) [CBK161371] | 110.442 |
| O=C(c1ccccc1)c1ccc(S(=O)(=O)N2CCCN(Cc3cc(F)c(F)c(F)c3)CC2)cc1 [CBK062777] | 92.7916 |
| O=C(O)C1CSC(c2ccccc2)N1 (stereo not shown) [CBK261008] | 88.9782 |
| Cc1ccc(C(=O)N2CCN(C(=O)CN3CCN(C)CC3)C2)cc1 [CBK024841C] | 95.3619 |
| O=C(O)c1cccc(NS(=O)(=O)c2ccc(-c3cnco3)cc2)c1 [CBK155726] | 59.7581 |
| N=c1n(CCN2CCCC2)c2ccccc2n1CC(O)c1ccc(Cl)c(Cl)c1 (stereo not shown) [CBK263448C] | 70.2674 |
| CC(C)CC(=O)N[C@@H](C)Cn1nc(-c2cccs2)oc1=O [CBK284336] | 61.0752 |
| CCN(CC)C(=O)c1ccccc1NS(=O)(=O)c1ccc(OC)c(OC)c1 [CBK045423] | 54.7738 |
| N#Cc1ccc(Oc2ccc(C(=O)NCC(=O)O)cc2)cc1 [CBK286579] | 77.6487 |
| Cc1nn(-c2ccccc2)c(Cl)c1C1NC(=O)c2c(sc(C)c2C)N1 (stereo not shown) [CBK288086] | 37.0846 |
| CC(C)c1csc(NC(=O)CC2CCN(S(=O)(=O)c3cccc(F)c3)CC2)n1 [CBK285902] | 117.643 |
| Cc1nnc(C(C)N2CCN(Cc3noc(C(C)(C)C)n3)CC2)o1 (stereo not shown) [CBK305171] | 118.339 |
| Oc1ccccc1/C=N/CC(O)C/N=C/c1ccccc1O [CBK261112] | 98.4831 |
| O=C(NCCN1CCOCC1)c1cc(-c2ccc(Cl)cc2Cl)nc2ccccc12 [CBK265379] | 113.458 |
| Cc1ccc(-n2c(SCC(=O)Nc3sc4c(c3C#N)CCCC4)nnc2-c2ccccc2O)c(C)c1 [CBK268692] | 103.532 |
| CCCNc1nc(Cl)nc(NC(C)(C)C)n1 [CBK091674] | 61.0456 |
| Cc1ccc(C(O)CN2CCC(O)(c3ccc(F)cc3)CC2)cc1 (stereo not shown) [CBK283309] | 97.7642 |
| O=C(NCc1ccccc1)c1ccnc2ccccc12 [CBK200191] | 95.5907 |

| Compound | % of control remaining |
| --- | --- |
| CS(=O)(=O)c1ccc(CN2C[C@@H]3OCC(=O)N(c4ccccc4)[C@@H]3C2)cc1 [CBK289237] | 97.3945 |
| Cc1nn2c(CN(C(=O)COc3ccccc3)c3ccccc3)nnc2c2ccccc12 [CBK268036] | 96.3436 |
| C/C(=N\NS(=O)(=O)c1ccc(C)cc1)C(C)(C)CC(=O)O [CBK263601] | 80.1578 |
| O=C(c1cccc(C(F)(F)F)c1)N1CCCCCC1 [CBK074291] | 127.036 |
| O=C(NCCc1cccs1)Nc1cccc(CN2CCCCC2)c1 [CBK306882] | 19.2671 |
| Oc1cccc(-c2nccnc2NCc2cccs2)c1 [CBK037343] | 97.2636 |
| COc1ccc(C(=O)Nc2ccccc2OC2CCNCC2)cc1 [CBK050282T] | 103.625 |
| CC(=O)N1N=C(COc2ccc(C)cc2)OC1c1ccc(Br)cc1 (stereo not shown) [CBK294396] | 92.6762 |
| CC1CN(C(=O)NC2CC2)C(C)CN1CCCC(c1ccc(F)cc1)c1ccc(F)cc1 (stereo not shown) [CBK024927C] | 82.4665 |
| c1csc(C2NN=C3C4CCN(CC4)C32)c1 (stereo not shown) [CBK021915] | 50.125 |
| COc1ccc(C(=O)N2CCC3(CCN(C(=O)Cc4cc(C)no4)C3)C2)cc1OC (stereo not shown) [CBK131784] | 92.4865 |
| c1ccc(OCCOc2cccnc2N2CCNCC2)cc1 [CBK200000C] | 107.92 |
| CCCCN(C)c1c(C)nc2c(OCC3CCCCO3)cccn12 (stereo not shown) [CBK147180] | 106.703 |
| CN(Cc1cccc2ncccc12)C(=O)c1cc(C2CC2)nn1C [CBK282537] | 109.931 |
| Nc1ncc(Br)nc1N1CCC[C@@H]1CO [CBK085450] | 105.615 |
| COc1cc(/C=N/NC(=O)CSc2n[nH]c(=O)[nH]c2=O)cc(OC)c1O [CBK263527] | 110.117 |
| CC[C@H](C)[C@H](NC(=O)C1CCN(S(=O)(=O)c2ccc(Cl)c(C(F)(F)F)c2)CC1)C(=O)O [CBK297117] | 87.3725 |
| Cn1cnnc1SCCNC(=O)N1CCCN(Cc2cccs2)CC1 [CBK307485] | 80.5768 |
| NCCNC(=O)c1ccc(-c2cccc(C(F)(F)F)c2)o1 [CBK115927C] | 115.052 |
| O=[N+]([O-])c1c(N(CCO)CCO)cc(Cl)c2nonc12 [CBK261446] | 99.4784 |
